# Some of the results follow. At the low end of the ranking, values are background and their order means little. The protein was read in a cell extract, so binding may be indirect.
# Target: T1, HNF4alpha8 (COS-7 nuclear extract) (UniProt P41235-5)
# T1 sequence: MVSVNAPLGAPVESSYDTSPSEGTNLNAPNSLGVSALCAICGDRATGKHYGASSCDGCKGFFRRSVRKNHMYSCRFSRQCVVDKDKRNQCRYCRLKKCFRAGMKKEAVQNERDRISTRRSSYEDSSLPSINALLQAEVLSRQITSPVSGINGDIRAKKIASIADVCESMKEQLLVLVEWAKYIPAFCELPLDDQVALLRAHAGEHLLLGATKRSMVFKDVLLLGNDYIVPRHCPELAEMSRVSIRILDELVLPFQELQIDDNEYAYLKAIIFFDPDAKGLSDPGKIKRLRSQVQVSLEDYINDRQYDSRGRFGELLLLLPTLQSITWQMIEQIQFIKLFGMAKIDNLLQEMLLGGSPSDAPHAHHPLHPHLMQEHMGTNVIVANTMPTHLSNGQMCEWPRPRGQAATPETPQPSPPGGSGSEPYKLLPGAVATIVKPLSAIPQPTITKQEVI
# Test: protein-binding microarray
# Details: COS-7 nuclear extract on double-stranded Agilent 4x180k PBM; binding buffer, salt, pH and temperature not given; high values mean tight binding; double strand, one strand shown; sequences stand for … in …GCCTAGGGAGATTAGAGTATCGGTCGA
row,Sequence,binding signal (log2 normalized intensity)
1,GGGCTGCGGAGGCGACTGCAGATTGACCTG,3.98
2,CAAAAGAGAAAACTCCCTCAGAGATGTTTA,-1.33
3,GCTGAATTCCCATCTAAGACTTTATTTGAA,-1.39
4,GCATCTGTTTTTATTTCCCCTTTCTGTTGG,2.17
5,AAACTCTGAAGGCAAATTCTTAGAATTGCA,-0.745
6,CTAAATGGTAGGATTGTTTGGGGATTACAC,-0.0975
7,ACTGATGCTCATAGCTACGGGTGACCTTGA,4.03
8,GCAAAACCTGATGTTTGGACAGTGTGACTC,1.54
9,TTTATTAGGGGTCAGCAAAGAACTCCCCAG,2.41
10,CCCAGGCCGTTGGACCAAGCTCTAGCATCC,-1.35
11,GGGTTTGACCGTTCTCTCCGGGTAAAGGTG,1.97
12,GAGGTGTCAGCCACCCCTCCTCCTGGGGGC,2.93
13,CCTCCCCGCCACCCCCCAGAGGGCCATCTA,5.88
14,TCAGGCTGAGGTGCTCTCAGATAAGAGATG,-1.24
15,CAGTGTTTACCGGATGAAAAGTGTTTGCCA,1.03
16,CACAAAGTACAGCTTTTTGTTTGTGTAAGT,1.67
17,GGGAGGCCGCTGACAAGCAGCCTCAGTGGC,-1.26
18,GGGGCCCACTGAGACGGGCTGAGGATGAGG,-1.01
19,CATCTGGGGAAAGTGCAAGGGCCCAGAGGA,-1.28
20,GAGGACTTTGGCCTTTTGTGAGATATGGAC,4.16

row,Sequence,binding signal (log2 normalized intensity)
1,GTGAAACACAGGACTTGATCCAGGGCAAAG,-1.39
2,GCTGGAATCTTGATAATGCCCTGACCCTAG,3.51
3,CGTGAAAGTTAACTTTGTAACTAACAACTG,0.51
4,GCGCCCCCGTGTGGCCGCGAGCACCGCGCG,2.79
5,TGCTCCTGCACTTTTGTGCTCTGTACCCGG,2.93
6,GCCTTAAGAGTCAAAGGGCAAAGGAATAAA,2.23
7,GTGGGAAAATTCCCCAGGAGGAGATAAGAT,-1.22
8,CCTTCGTTTGCTTTTCCTTATCATCACATG,1.62
9,TTTGCCCTCTCTTCAGCACCTTTTAAAATA,-0.0592
10,GCAATCACAAGGAATGCCCTTATCTCCCAG,0.329
11,CAATCTTGTTGGGTCAGTTTATCGAAAATC,0.992
12,GCCTCCACTCCTCCTCCTTCCCTCCTGCTC,1
13,AAAAAGTCCCTGGTCCCATAGGAAAGTGAG,-0.813
14,CATCAAAGCCAGGACTTCTAGAGTGAGCCA,-1.38
15,GAAGAGGACTTTTTTTTGCCTAACTGCTGC,-1.35
16,GTGAAGGACACAGAATGACTTTCAGAAAGT,-0.0152
17,GGGGCTGGGCCCCACAGTGCATCTGATAAG,-1.21
18,GTTTCTCCACAGCCTCACCAACAGGATTGT,-1.25
19,AAAAACACCTGGTTCCTTGCAAGATAAGGG,-0.239

# — paper PMC10726135
